# Results reported in PMC4336329 (PLoS ONE, 2015).
# Screen size: about 310,000 compounds; about 14,000 (4.5%) showed an effect of 50% or more. The effect is printed as a negative number. This is one part of the list.
# Target: human ether-à-go-go-related gene (hERG) potassium channel (human, UniProt Q12809)
# Assay: primary screen, population patch clamp on CHO cells stably expressing hERG
# 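Note: peak tail current of the secondary pulse compared with the same well before compound.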
# Chain of human ether-à-go-go-related gene (hERG) potassium channel (Q12809 whole entry, looked up): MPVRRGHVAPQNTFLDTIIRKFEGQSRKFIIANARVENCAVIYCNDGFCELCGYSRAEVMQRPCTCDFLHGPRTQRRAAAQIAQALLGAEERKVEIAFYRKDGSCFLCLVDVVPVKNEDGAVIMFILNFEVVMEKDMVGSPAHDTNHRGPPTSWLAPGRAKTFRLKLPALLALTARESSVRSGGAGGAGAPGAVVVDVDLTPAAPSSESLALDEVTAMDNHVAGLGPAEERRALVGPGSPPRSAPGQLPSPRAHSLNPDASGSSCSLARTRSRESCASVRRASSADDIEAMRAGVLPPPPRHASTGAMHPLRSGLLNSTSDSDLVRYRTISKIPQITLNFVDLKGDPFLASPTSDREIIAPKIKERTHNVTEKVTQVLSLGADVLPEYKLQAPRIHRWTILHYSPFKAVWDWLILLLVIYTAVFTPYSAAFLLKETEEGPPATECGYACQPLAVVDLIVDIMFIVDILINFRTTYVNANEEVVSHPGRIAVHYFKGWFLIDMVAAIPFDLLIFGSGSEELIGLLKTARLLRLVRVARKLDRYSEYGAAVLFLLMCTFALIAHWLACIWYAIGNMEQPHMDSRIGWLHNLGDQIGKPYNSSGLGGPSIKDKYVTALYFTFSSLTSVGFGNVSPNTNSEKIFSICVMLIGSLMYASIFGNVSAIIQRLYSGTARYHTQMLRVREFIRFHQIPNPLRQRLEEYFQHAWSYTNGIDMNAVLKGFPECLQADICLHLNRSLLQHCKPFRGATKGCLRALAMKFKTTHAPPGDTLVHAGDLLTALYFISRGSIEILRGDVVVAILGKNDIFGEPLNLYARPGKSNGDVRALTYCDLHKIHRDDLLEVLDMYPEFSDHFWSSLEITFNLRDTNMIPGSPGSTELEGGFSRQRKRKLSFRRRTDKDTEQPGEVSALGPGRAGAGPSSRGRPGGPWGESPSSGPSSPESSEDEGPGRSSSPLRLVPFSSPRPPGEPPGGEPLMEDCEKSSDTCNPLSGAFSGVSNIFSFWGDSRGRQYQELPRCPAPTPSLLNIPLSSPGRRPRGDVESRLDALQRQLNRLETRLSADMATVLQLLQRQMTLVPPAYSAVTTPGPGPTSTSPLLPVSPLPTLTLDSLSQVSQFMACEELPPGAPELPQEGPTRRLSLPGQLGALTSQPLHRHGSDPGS
row,SMILES,"hERG current change (%, negative = inhibition) at 10uM [%]"
1,CCn1nc(C)cc1C(=O)NC1CCCc2c1cnn2-c1ccc(C)c(C)c1 (centres unmarked),-8.78
2,CCCC12CN(C(=O)c3ccc(OC)cc3)CC(C)(CN(C(=O)c3ccc(OC)cc3)C1)C2=O,-2.79
3,Cc1nc2ccccc2c(=O)n1/N=C/c1ccc(OC(F)F)cc1,8.31
4,CC(C)c1ccc(C2NC(C(=O)O)CS2)cc1 (centres unmarked),-6.38
5,CC(=O)c1cccc(NC(=S)Nc2ccc(F)cc2)c1,0.536
6,CC(C)Cc1cc(C(=O)N2CCC(N3CCC(C(=O)N4CCCC4)CC3)CC2)n[nH]1,6.79
7,CC(C)CCn1nnnc1C(c1ccccc1F)N1CCC(C(N)=O)CC1 (centres unmarked),1.41
8,CCOc1ccc(NC(=O)NCc2cccnc2)cc1,22.7
9,CCOc1ccc(OCCSc2nc(N)cc(=O)[nH]2)cc1,1.58
10,CC(C)CCN(C(=O)CCCSc1nc2ccccc2[nH]1)c1c(N)n(Cc2ccccc2)c(=O)[nH]c1=O,-18.7
11,Cc1nc2sc(C(c3ccc(Br)cc3)N3CC(C)OC(C)C3)c(O)n2n1 (centres unmarked),-0.694
12,CCOC(=O)/C(C#N)=C/c1c(N2CCCCCC2)nc2ccccn2c1=O,-38.4
13,O=C(N/C(=C\c1ccc(Br)cc1)C(=O)N1CCCC1)c1ccccc1F,-71.8
14,CSc1ccc(S(=O)(=O)NCC(=O)OCC(=O)N2CCC(C)CC2)cc1[N+](=O)[O-],-38.2
15,Cc1cc(C(=O)CSc2nc3ccccc3c(=O)n2C)c(C)n1Cc1ccc2c(c1)OCO2,12.9
16,COc1ccccc1C(=O)Nc1nnc(S(=O)(=O)N2CCCCCC2)s1,3.54
17,COCCn1c(CN2CCN(C(=O)c3ccco3)CC2)nc2c1c(=O)n(C)c(=O)n2C,-9.04
18,O=C1NC(=O)/C(=C/c2ccc(-c3cccc([N+](=O)[O-])c3)o2)S1,18.4
19,c1ccc2c(c1)CC/C2=N/Nc1nc2ccccc2[nH]1,9.49
20,CCOc1ccc(S(=O)(=O)N2CCCC(C(=O)NCCN3CCOCC3)C2)cc1Cl (centres unmarked),-5.09
21,COc1ccc(N2CCN(C(=O)C3Cc4ccccc4CN3C(=O)c3ccco3)CC2)cc1 (centres unmarked),-39.8
22,CN(C)C(=O)c1ccc2c(c1)C1C3CCC(C3)C1C(c1ccccc1)N2 (centres unmarked),-13.5

row,SMILES,"hERG current change (%, negative = inhibition) at 10uM [%]"
1,O=C(CSc1nc(N2CCOCC2)nc(N2CCOCC2)n1)Nc1ccccc1F,19.2
2,Cc1cc(C)cc(OCC(=O)OCC(=O)Nc2c(C)n(C)n(-c3ccccc3)c2=O)c1,9.07
3,c1cc(SSc2ccncc2)ccn1,26.7
4,O=S(=O)(NC1CCCCC1NCc1ccco1)c1ccccc1 (centres unmarked),1.64
5,CCOC(=O)N1CCN(S(=O)(=O)c2ccc(F)c(C(=O)Nc3ccc(C(C)C)cc3)c2)CC1,-27.3
6,CC1CN(S(=O)(=O)c2ccc(CN3C(=O)c4cccnc4C3=O)cc2)c2ccccc2O1 (centres unmarked),6.4
7,Cc1occc1-c1nnc(SCC(=O)NC2CCCC2)n1-c1ccccc1,-74.8
8,CC(=O)NNC(=O)c1csc(Cc2c(Cl)sc3ccc(Cl)cc23)n1,-19.6
9,CN(C)S(=O)(=O)c1ccc(C(=O)Nc2ccc(Cl)cc2)cc1,-2.2
10,Cc1cccc(OCC(=O)OCC(=O)N2CCN(C(=O)c3ccco3)CC2)c1C,-31.8
11,CC(=O)Nc1ccc(C(=O)N2CCc3cc4c(cc3C2C)OCCCO4)cc1 (centres unmarked),3.83
12,COc1cccc(C(=O)NCC(=O)N/N=C/c2c(C)[nH]c3ccccc23)c1,13.2
13,CCNc1nc(NCC)nc(SCCOc2ccc(C)cc2)n1,-40.6
14,CCCS(=O)(=O)N1CCN(CCCc2ccccc2)CC1.O=C(O)C(=O)O,4.11
15,COc1ccccc1CNC(=O)c1ccoc1C,0.921
16,COc1ccccc1-n1c(SCC(=O)Nc2ccc(C)cc2)nc(O)cc1=O,2.38
17,CCOC(=O)c1cnc2ccc(OCC)cc2c1NCc1cccnc1.Cl,-77.4
18,CC(=O)Nc1ccc(NC(=O)CSc2nccn2Cc2ccco2)cc1,-36.8
19,O=C(O)c1ccccc1C(=O)OCc1c(-c2ccccc2)ncc2ccccc12,10.3
20,COC(=O)c1ccc(NC(=O)NC(=O)Oc2ccccc2)cc1,-3.79
21,CCN(CC)S(=O)(=O)c1ccc(C(=O)NCCc2ccccn2)cc1,10.8
22,COc1cc(OC)c(OC)cc1CN(C)CCc1ccccn1.O=C(O)C(=O)O,-11.2
